# Measured values taken from PubChem BioAssay (NCATS).
# This list was built around the results that the source calls inconclusive (neither active nor inactive); the mix of calls is not that of the screen. For part of these data: Potencies of inconclusive entries are left out as doubtful fits. Some structures have more than one record in an assay (separate samples or runs), and their calls can disagree. Calls of active or inactive are those of the source. Unless noted, calls come from the whole dose curve; as a rule, active = well fitted curve in the direction sought with a large enough effect; inconclusive = small, poorly fitted or top-dose-only effect, or another doubt; inactive = no such curve, though single readings can be large; an effect the other way counts as inactive or inconclusive.
# Assays:
# [1] = biological target: Calcium and integrin-binding protein 1 (Homo sapiens) (UniProt Q99828); experiment: Primary qHTS for Identification of Calcium Integrin Binding Protein 1 (CIB1) Competitor (AID 1508620); settings: CIB1-GST / FITC-alphaIIb peptide fluorescence polarization; series mostly up to 114 µM;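 note: GST tagged CIB1 binding a fluorescein labelled alphaIIb integrin peptide tracer; top concentration of the series differs between compounds; % is set by controls: 0 for no effect and ±100 for the full control effect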
# Summary of the method: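 Fluorescence polarization competition: CIB1-GST (1 uM final) preincubated with compound 15 min at room temperature, then FITC-labeled alphaIIb peptide (100 nM final) added for another 15 min. Polarization read at Ex 480/Em 540.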
# [2] = biological target: Cytochrome P450 2D6 (Homo sapiens) (UniProt P10635); experiment: Cytochrome P450 family 2 subfamily D member 6 (CYP2D6) small molecule antagonists: luciferase biochemical (cell-free) qHTS assay (AID 1645840; active = well fitted curve in the direction sought with a large enough effect in the repeat runs; inconclusive = weak or mixed curves; inactive = no such curve, though single readings can be large; an effect the other way counts as inactive or inconclusive; note: potency is the fitted concentration of half-maximal effect; nearly all actives have a fitted effect of over 55% in size); settings: P450-Glo CYP2D6 enzyme, luciferin luminescence, 1 h; series mostly up to 57.4 µM
# Summary of the method: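 P450-Glo CYP2D6 system: proluciferin substrate converted by enzyme to luciferin, read by luminescence proportional to activity. Enzyme-substrate mix with compound 10 min at room temperature, then NADPH regeneration 1 h before detection reagent.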
# [3] = Primary redox qHTS assay for identification of artifact compounds. (AID 1845223); settings: Amplex Red/HRP redox cycling with DTT, fluorescence; redox activity (% of DA3003): at 53.8 µM (top of the series); note: potency is the fitted concentration of half-maximal effect
# Summary of the method: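 Redox-cycling detection via DTT (250 uM final) oxidation coupled to Amplex Red (25 uM)/HRP (250 mU/mL) in HBSS. 15 min preincubation plus 30 min after DTT, room temperature. Ex/Em 525/598 nm; 4-parameter Hill fit against DMSO and 10 uM DA3003.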
# [4] = qHTS of pediatric cancer cell lines to identify multiple opportunities for drug repurposing: Primary screen for SK-N-MC cells (AID 1347093); settings: SK-N-MC viability, CellTiter-Glo luminescence, 48 h; activity change, negative = cytotoxic: at 46 µM (top of the series); note: potency is the fitted concentration of half-maximal effect
# Summary of the method: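 Metabolically active cells were quantified by ATP-dependent luminescence (CellTiter-Glo, 15 min at room temperature) following 48 h treatment. Cells had been plated at 500-1,000 per well and settled for 5 h beforehand.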
# [5] = qHTS of pediatric cancer cell lines to identify multiple opportunities for drug repurposing: Primary screen for BT-37 cells (AID 1347094); settings: BT-37 viability, CellTiter-Glo luminescence, 48 h; series mostly up to 57.3 µM; note: potency is the fitted concentration of half-maximal effect
# Summary of the method: (§1)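 Cells plated at 500-1,000/well in growth medium, compounds added after 5 h. MIPE tested at 11 points (from 0.78 nM), NPC at 8 points (from 0.59 nM). CellTiter-Glo luminescence after 48 h; concentration-response curves from primary screen.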
# [6] = qHTS of pediatric cancer cell lines to identify multiple opportunities for drug repurposing: Primary screen for NB-EBc1 cells (AID 1347095); settings: NB-EBc1 neuroblastoma viability, CellTiter-Glo luminescence, 48 h; series mostly up to 46 µM; note: potency is the fitted concentration of half-maximal effect
# Summary of the method: as §1
# [7] = qHTS of pediatric cancer cell lines to identify multiple opportunities for drug repurposing: Primary screen for NB1643 cells (AID 1347099); settings: NB1643 neuroblastoma viability, CellTiter-Glo luminescence, 48 h; series mostly up to 46 µM; note: potency is the fitted concentration of half-maximal effect; nearly all actives have a fitted effect of over 50% in size
# Summary of the method: as §1
# [8] = qHTS of pediatric cancer cell lines to identify multiple opportunities for drug repurposing: Primary screen for BT-12 cells (AID 1347101); settings: BT-12 viability, CellTiter-Glo luminescence, 48 h; series mostly up to 57.3 µM; note: nearly all actives have a fitted effect of over 25% in size; note: potency is the fitted concentration of half-maximal effect;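 for activity change, negative = cytotoxic: plate controls were DMSO for no effect and bortezomib positive control for full effect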
# Summary of the method: (§2)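 Cells (500-1,000/well) rested 5 h, then received compounds for 48 h; metabolically active cells were measured by CellTiter-Glo luminescence. Final concentrations spanned up to 46 µM (MIPE, 11-point) or 0.59 nM-46 µM (NPC, 8-point) in primary screens, 11-point in follow-ups.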
# [9] = qHTS of pediatric cancer cell lines to identify multiple opportunities for drug repurposing: Primary screen for Rh18 cells (AID 1347102); settings: Rh18 rhabdomyosarcoma viability, CellTiter-Glo luminescence, 48 h; series mostly up to 46 µM; note: potency is the fitted concentration of half-maximal effect; nearly all actives have a fitted effect of over 65% in size
# Summary of the method: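 Cells (500-1,000/well) in growth media were settled 5 h at 37 degrees C, then given compounds for 48 h. Viability was read as CellTiter-Glo luminescence. Primary runs used MIPE at 11 points (0.78 nM-46 µM) and NPC at 8 points (0.59 nM-46 µM); follow-ups used 11 points.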
# [10] = qHTS of pediatric cancer cell lines to identify multiple opportunities for drug repurposing: Primary screen for OHS-50 cells (AID 1347103); settings: OHS-50 osteosarcoma viability, CellTiter-Glo luminescence, 48 h; series mostly up to 57.3 µM; note: nearly all actives have a fitted effect of over 40% in size; note: potency is the fitted concentration of half-maximal effect;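 for activity change, negative = cytotoxic: plate controls were DMSO neutral control for no effect and bortezomib positive control for full effect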
# Summary of the method: as §2
# [11] = qHTS of pediatric cancer cell lines to identify multiple opportunities for drug repurposing: Primary screen for Rh41 cells (AID 1347108); settings: Rh41 rhabdomyosarcoma viability, CellTiter-Glo luminescence, 48 h; series mostly up to 46 µM; note: nearly all actives have a fitted effect of over 70% in size; note: potency is the fitted concentration of half-maximal effect;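 for activity change, negative = cytotoxic: luminescence drop marks cytotoxic hits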
# Summary of the method: as §1
# [12] = qHTS for identification of novel therapeutic agents for treatment of microphthalmiaassociated transcription factor (MiT) renal cell carcinoma (RCC) (AID 1963991; calls by dose curve; note: potency is the fitted concentration of half-maximal effect); settings: TFE3-RCC UOK109 viability, CellTiter-Glo, 48 h; active = Z-AUC below -0.8 in all three lines
# Summary of the method: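 Viability of three TFE3-fusion renal carcinoma lines measured by CellTiter-Glo after 48 h treatment with each of 1912 compounds at 11 concentrations. Responses scaled between DMSO (100%) and empty wells (0%) before curve fitting.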
# KB-3-1 = experiment: Cytotoxic Profiling of Annotated Libraries Using Quantitative High-Throughput Screening (AID 1296008); settings: Five cell lines viability, CellTiter-Glo ATP luminescence, 48-72 h; max response: stronger effect = lower value; note: nearly all actives have a fitted effect of over 60% in size; note: potency is the fitted concentration of half-maximal effect
# Summary of the method: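 Compounds were pin-transferred onto cells and incubated 48 or 72 hr at 37 degree Celsius, 95% humidity. CellTiter-Glo was added, plates sat 10 min at room temperature, then ATP-coupled luminescence was imaged as the viability read-out.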
# [13] = tested on: Zika virus NS2B-NS3 protease (linked construct); experiment: Primary screen NINDS Rhodamine qHTS for Zika virus inhibitors (AID 1347160); settings: purified NS2B-NS3 protease, Rhodamine110 substrate fluorescence; activity change, negative = inhibition: at 57.1 µM (top of the series) unless noted; series mostly up to 57.1 µM; note: nearly all actives have a fitted effect of over 55% in size; note: potency is the fitted concentration of half-maximal effect
# Summary of the method: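 Single-chain NS2B-NS3 protease, 25 nM, pH 8.0; compounds preincubated 15 min. Activity: Rhodamine110 release from 1.5 microM substrate over 15 min, room temperature, data fitted to 4-parameter Hill.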
# [14] = qHTS assay to identify inhibitors of the type 1 interferon - major histocompatibility complex class I in skeletal muscle: Counter screen cell viability and HiBit confirmation (AID 1347412); settings: iHSKM muscle cells + IFN-b, HiBiT or CellTiter-Glo, 24 h; Viability; at 45.9 µM (top of the series); note: % is set by controls: 0 for no effect and ±100 for the full control effect; nearly all actives have a fitted effect of over 60% in size
# Summary of the method: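 Human myoblast knock-in line, 4.0 ng/ml IFN-beta stimulation, 24 h compound treatment. Endpoints: HiBiT lytic luminescence (HLA-B level) and CellTiter Glo (ATP). Dosing 12 concentrations, 3-fold steps, 46 uM highest final.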
# [15] = biological target: Glutathione peroxidase 1 (Homo sapiens) (UniProt P07203); experiment: Primary qHTS Assay for Inhibitors of Recombinant Selenoprotein Glutathione Peroxidase 1 (GPX1) (AID 1845191); settings: recombinant GPX1, GR-coupled NADPH fluorescence, 15 min; activity, negative = inhibition: at 48.8 µM (top of the series); series mostly up to 48.8 µM; note: nearly all actives have a fitted effect of over 65% in size; note: potency is the fitted concentration of half-maximal effect; for activity, negative = inhibition: % is set by controls: 0 for no effect and ±100 for the full control effect
# Summary of the method: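 GPX1 10 nM, GR 100 nM, GSH 1 mM, NADPH 0.5 mM, CHP 0.5 mM (final). 30-min cpd preincubation, RT. Ex340/Em450 read t=0, t=15 min.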
# WaGa = experiment: qHTS assay to identify novel small-molecules to repurpose for Merkel cell carcinoma treatment (AID 1296009); settings: MCC and control cell lines, CellTiter-Glo viability, 72 h; series mostly up to 46 µM; note: potency is the fitted concentration of half-maximal effect; nearly all actives have a fitted effect of over 60% in size
# Summary of the method: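 Viability readout: ATP luminescence (CellTiter-Glo) after 72 hr drug exposure at 37 degree celsius. Dose-response format was 8 points for NPC and 11 points for MIPE; data normalized to in-plate controls.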
# [16] = qHTS of pediatric cancer cell lines to identify multiple opportunities for drug repurposing: Primary screen for DAOY cells (AID 1347090); settings: DAOY medulloblastoma viability, CellTiter-Glo luminescence, 48 h; activity change, negative = cytotoxic: at 46 µM (top of the series); note: potency is the fitted concentration of half-maximal effect; nearly all actives have a fitted effect of over 55% in size
# Summary of the method: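 Eight- or eleven-point concentration series, 48 h treatment at 37 degrees C in growth media; readout CellTiter-Glo luminescence. Potency and efficacy were taken from the concentration-response curves.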
# [17] = qHTS of pediatric cancer cell lines to identify multiple opportunities for drug repurposing: Primary screen for A673 cells (AID 1347092); settings: A673 Ewing sarcoma viability, CellTiter-Glo ATP luminescence, 48 h; activity change, negative = cytotoxic: at 46 µM (top of the series); note: potency is the fitted concentration of half-maximal effect; nearly all actives have a fitted effect of over 45% in size
# Summary of the method: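 Titration-based qHTS on A673 cells: MIPE compounds spanned 11 points (0.78 nM to 46 µM final), NPC compounds 8 points (0.59 nM to 46 µM final). Viability after 48 h was measured by ATP luminescence.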
# [18] = qHTS of pediatric cancer cell lines to identify multiple opportunities for drug repurposing: Primary screen for SK-N-SH cells (AID 1347098); settings: SK-N-SH viability, CellTiter-Glo luminescence, 48 h; series mostly up to 57 µM;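 note: DMSO served as neutral control and bortezomib at 2.3 µM as positive control; % is set by controls: 0 for no effect and ±100 for the full control effect; nearly all actives have a fitted effect of over 65% in size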
# Summary of the method: as §2
# Tags give direction and shape of the fitted curve.
# UniProt P07203, sequence (P07203 whole entry, looked up): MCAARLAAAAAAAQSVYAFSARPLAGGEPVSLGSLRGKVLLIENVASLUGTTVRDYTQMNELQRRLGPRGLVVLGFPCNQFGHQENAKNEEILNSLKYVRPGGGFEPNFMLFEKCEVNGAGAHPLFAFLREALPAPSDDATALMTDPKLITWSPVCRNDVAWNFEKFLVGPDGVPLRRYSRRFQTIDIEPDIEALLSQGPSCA
# UniProt P10635, sequence (P10635 whole entry, looked up): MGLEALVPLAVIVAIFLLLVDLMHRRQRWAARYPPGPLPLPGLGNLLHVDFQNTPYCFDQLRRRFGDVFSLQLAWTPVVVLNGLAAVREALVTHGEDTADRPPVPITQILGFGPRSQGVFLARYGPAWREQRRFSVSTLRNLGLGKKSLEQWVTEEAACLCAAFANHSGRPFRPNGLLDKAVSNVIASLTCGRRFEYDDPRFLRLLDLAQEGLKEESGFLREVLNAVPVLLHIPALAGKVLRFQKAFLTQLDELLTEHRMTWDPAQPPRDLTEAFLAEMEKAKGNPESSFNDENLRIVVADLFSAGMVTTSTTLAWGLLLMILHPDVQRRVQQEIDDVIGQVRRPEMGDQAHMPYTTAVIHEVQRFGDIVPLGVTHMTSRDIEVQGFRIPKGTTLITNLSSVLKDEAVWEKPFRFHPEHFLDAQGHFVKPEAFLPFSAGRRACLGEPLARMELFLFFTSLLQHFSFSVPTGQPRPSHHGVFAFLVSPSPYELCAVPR
# UniProt Q99828, sequence (Q99828 whole entry, looked up): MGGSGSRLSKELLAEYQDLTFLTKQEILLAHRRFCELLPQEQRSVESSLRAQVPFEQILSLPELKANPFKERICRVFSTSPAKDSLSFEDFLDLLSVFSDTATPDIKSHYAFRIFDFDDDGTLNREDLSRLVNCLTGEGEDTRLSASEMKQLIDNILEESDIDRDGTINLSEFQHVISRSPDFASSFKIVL
smiles,measurement,setting,value
CC(C)(C)NCc1cc(Nc2ccnc3cc(Cl)ccc23)c2c(c1O)CCCC2,"activity change, negative = inhibition",[1],inactive: -3.89% [at 1.07 µM]
same,Potency,[2],"inconclusive [inhibitor, single point]"
same,redox activity (% of DA3003),[3],inactive: -4.12% [at 0.461 µM]
C[C@@H]1CC[C@]2(C(=O)O)CC[C@]3(C)C(=CCC4[C@@]5(C)C[C@@H](O)[C@H](O)[C@@](C)(CO)C5CC[C@]43C)C2[C@]1(C)O (stereo not given in full),Potency,[3],"inconclusive [activator, partial curve, poor fit]"
NC(=O)Nc1sc(-c2ccc(F)cc2)cc1C(N)=O,Potency,[4],active: 59 nM
same,Potency,[5],active: 685 nM
same,Potency,[6],active: 469 nM
same,Potency,[7],active: 4690 nM
same,Potency,[8],"inconclusive [cytotoxic, full curve]"
same,Potency,[9],active: 5260 nM
same,Potency,[10],active: 432 nM
same,Potency,[11],active: 1050 nM
same,Potency,[12],"inconclusive [falling, full curve]"
same,Potency,KB-3-1,active: 9350 nM
O=C(O)c1ccccc1NC(=O)N1CCC(c2ccccc2C(F)(F)F)CC1,Potency,[13],"inconclusive [inhibitor, single point]"
COc1ccc(C(=O)c2ccccc2O)c(O)c1,Potency,[8],inactive
same,Potency,[10],"inconclusive [cytotoxic, single point]"
same,Potency,[11],inactive
CC(=O)c1cnc2ccc(-c3cc(Cl)c(O)c(Cl)c3)nc2c1NC1CCC(CN(C)C)CC1 (stereo not given),outcome,[13],inactive; activator [at 10.7 µM]
same,Potency,KB-3-1,active: 75 nM
same,"activity change, negative = inhibition",[14],inactive: -15.7%
OCC(O)CN1CCN(c2ccccc2)CC1 (stereo not given),Potency,[10],inactive
COc1ccc(-c2cc(C(O)C3CCCCN3)c3ccccc3n2)cc1 (stereo not given),Potency,[2],"inconclusive [inhibitor, single point]"
same,Potency,[15],active: 20200 nM
same,Potency,KB-3-1,"inconclusive [inhibitor, single point]"
COc1cccc(-c2cn(-c3ccc(CCN4CCC(O)CC4)cc3)c3ncnc(N)c23)c1,Potency,[2],"inconclusive [inhibitor, partial curve]"
same,Potency,KB-3-1,"inconclusive [inhibitor, single point]"
Cc1ccc(NC(=O)C2(c3ccc4c(c3)OC(F)(F)O4)CC2)nc1-c1cccc(C(=O)O)c1,Potency,[5],active: 38.5 nM
same,Potency,[7],active: 33.2 nM
same,Potency,[9],active: 833 nM
same,Potency,[13],"inconclusive [inhibitor, single point]"
same,Potency,[15],inactive
same,Potency,[12],active: 235 nM
same,Potency,KB-3-1,active: 52.6 nM
same,outcome,KB-3-1,inactive
same,Potency,WaGa,"inconclusive [inhibitor, full curve, poor fit]"
Cc1cccc2c1NC(=O)C2(c1ccc(O)cc1)c1ccc(O)cc1,Potency,[13],"inconclusive [inhibitor, single point]"
CC(=O)OC[C@H]1O[C@@H](n2ncc(=O)[nH]c2=O)[C@H](OC(C)=O)[C@@H]1OC(C)=O,Potency,[16],"inconclusive [cytotoxic, partial curve, poor fit]"
same,Potency,[17],"inconclusive [cytotoxic, full curve, poor fit]"
same,Potency,[5],"inconclusive [cytotoxic, full curve]"
same,Potency,[18],inactive
same,Potency,[7],"inconclusive [cytotoxic, partial curve, poor fit]"
same,Potency,[8],"inconclusive [cytotoxic, partial curve]"
same,Potency,[10],"inconclusive [cytotoxic, full curve, poor fit]"
CC(=O)Nc1ccc(NC(=S)NC(=O)c2ccc(C(C)(C)C)cc2)cc1,Potency,[15],"inconclusive [inhibitor, full curve]"
